# Laboratory results as given in the supplement of paper PMC8728848.
# The list shows a part of the results.
# Legend:
# Assay in all cases: glycan array binding signal (z-score within array); higher = stronger binding
# Conditions in all cases: glycan notation: IUPAC condensed, linker removed
# Gal(a1-3)Gal(b1-3)GlcNAc = target: Gal(a1-3)Gal(b1-3)GlcNAc
# Summary of the method: (§1)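 Glycan array data were curated from 3228 arrays in the Consortium for Functional Glycomics database and kept only where the protein sequence was available. Glycan names were converted to IUPAC-condensed notation, and columns mapping to the same glycan were averaged. The binding signal is a within-array Z-score, averaged across arrays of the same protein sequence at different concentrations or buffers and across linkers. Negative Z-scores can be read as non-binding.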
# [1] = target: Gal(a1-3)Gal(b1-3)GlcNAc(b1-2)Man
# Summary of the method: as §1
# [2] = target: Gal(a1-3)Gal(b1-3)GlcNAc(b1-2)Man(a1-3)[Gal(a1-3)Gal(b1-3)GlcNAc(b1-2)Man(a1-6)]Man(b1-4)GlcNAc(b1-4)GlcNAc
# Summary of the method: as §1
# [3] = target: Gal(a1-3)Gal(b1-3)GlcNAc(b1-3)GalNAc
# Summary of the method: as §1
# [4] = target: Gal(a1-3)Gal(b1-3)GlcNAc(b1-6)GalNAc
# Summary of the method: as §1
# [5] = target: Gal(a1-3)Gal(b1-3)[Fuc(a1-4)]GlcNAc(b1-2)Man(a1-3)[Gal(a1-3)Gal(b1-3)[Fuc(a1-4)]GlcNAc(b1-2)Man(a1-6)]Man(b1-4)GlcNAc(b1-4)GlcNAc
# Summary of the method: as §1
# Gal(a1-3)Gal(b1-4)Glc = target: Gal(a1-3)Gal(b1-4)Glc
# Summary of the method: as §1
# Gal(a1-3)Gal(b1-4)GlcNAc = target: Gal(a1-3)Gal(b1-4)GlcNAc
# Summary of the method: as §1
# [6] = target: Gal(a1-3)Gal(b1-4)GlcNAc(b1-2)Man
# Summary of the method: as §1
# [7] = target: Gal(a1-3)Gal(b1-4)GlcNAc(b1-2)Man(a1-3)[Gal(a1-3)Gal(b1-4)GlcNAc(b1-2)Man(a1-6)]Man(b1-4)GlcNAc(b1-4)GlcNAc
# Summary of the method: as §1
# [8] = target: Gal(a1-3)Gal(b1-4)GlcNAc(b1-3)GalNAc
# Summary of the method: as §1
# [9] = target: Gal(a1-3)Gal(b1-4)GlcNAc(b1-6)GalNAc
# Summary of the method: as §1
# [10] = target: Gal(a1-3)Gal(b1-4)[Fuc(a1-3)]GlcNAc
# Summary of the method: as §1
# [11] = target: Gal(a1-3)Gal(b1-4)[Fuc(a1-3)]GlcNAc(b1-2)Man(a1-3)[Gal(a1-3)Gal(b1-4)[Fuc(a1-3)]GlcNAc(b1-2)Man(a1-6)]Man(b1-4)GlcNAc(b1-4)GlcNAc
# Summary of the method: as §1
# Gal(a1-3)GalNAc = target: Gal(a1-3)GalNAc
# Summary of the method: as §1
# [12] = target: Gal(a1-3)[Gal(a1-4)]Gal(b1-4)GlcNAc
# Summary of the method: as §1
# [13] = target: Gal(a1-4)Gal(b1-3)GlcNAc(b1-2)Man(a1-3)[Gal(a1-4)Gal(b1-3)GlcNAc(b1-2)Man(a1-6)]Man(b1-4)GlcNAc(b1-4)GlcNAc
# Summary of the method: as §1
# Gal(a1-4)Gal(b1-4)Glc = target: Gal(a1-4)Gal(b1-4)Glc
# Summary of the method: as §1
# Gal(a1-4)Gal(b1-4)GlcNAc = target: Gal(a1-4)Gal(b1-4)GlcNAc
# Summary of the method: as §1
# [14] = target: Gal(a1-4)Gal(b1-4)GlcNAc(b1-2)Man(a1-3)[Gal(a1-4)Gal(b1-4)GlcNAc(b1-2)Man(a1-6)]Man(b1-4)GlcNAc(b1-4)GlcNAc
# Summary of the method: as §1
# [15] = target: Gal(a1-4)Gal(b1-4)GlcNAc(b1-3)Gal(b1-4)Glc
# Summary of the method: as §1
# Gal(a1-4)GlcNAc = target: Gal(a1-4)GlcNAc
# Summary of the method: as §1
# Gal(a1-6)Glc = target: Gal(a1-6)Glc
# Summary of the method: as §1
# Gal(b1-2)Gal = target: Gal(b1-2)Gal
# Summary of the method: as §1
# Gal(b1-3)Gal = target: Gal(b1-3)Gal
# Summary of the method: as §1
# Gal(b1-3)Gal(b1-4)GlcNAc = target: Gal(b1-3)Gal(b1-4)GlcNAc
# Summary of the method: as §1
# [16] = target: Gal(b1-3)Gal(b1-4)GlcNAc(b1-2)Man(a1-3)[Gal(b1-3)Gal(b1-4)GlcNAc(b1-2)Man(a1-6)]Man(b1-4)GlcNAc(b1-4)GlcNAc
# Summary of the method: as §1
# Gal(b1-3)GalNAc = target: Gal(b1-3)GalNAc
# Summary of the method: as §1
# [17] = target: Gal(b1-3)GalNAc(a1-3)[Fuc(a1-2)]Gal(b1-4)Glc
# Summary of the method: as §1
# [18] = target: Gal(b1-3)GalNAc(a1-3)[Fuc(a1-2)]Gal(b1-4)GlcNAc
# Summary of the method: as §1
# Gal(b1-3)GalNAc(b1-3)Gal = target: Gal(b1-3)GalNAc(b1-3)Gal
# Summary of the method: as §1
# [19] = target: Gal(b1-3)GalNAc(b1-3)Gal(a1-4)Gal(b1-4)Glc
# Summary of the method: as §1
# [20] = target: Gal(b1-3)GalNAc(b1-4)Gal(b1-4)Glc
# Summary of the method: as §1
# [21] = target: Gal(b1-3)GalNAc(b1-4)[Neu5Ac(a2-3)]Gal(b1-4)Glc
# Summary of the method: as §1
# Gal(b1-3)GlcNAc = target: Gal(b1-3)GlcNAc
# Summary of the method: as §1
# [22] = target: Gal(b1-3)GlcNAc(a1-3)Gal(b1-4)GlcNAc
# Summary of the method: as §1
# [23] = target: Gal(b1-3)GlcNAc(a1-6)Gal(b1-4)GlcNAc
# Summary of the method: as §1
binder,measurement,setting,value
PpFlo1 (Pichia pastoris) (protein) MGSSHHHHHHSSGLVPRGSHMQESGDGDISDSAYACDIDATRYDGFNATIYEFQPGDGRLTRDPVFMSTGYLNRTQLHSITGVTDPGFSIYTPGVPTTTLYGIPNVNWENLLLELKGYFRAEVSGDYGLSLRNIDDSAILFFGKETAFQCCNENSISNEASTDYSLFTIFRQEGDETTNLDSFTYTQYLEAGKYYPVRTFFVNIERHAVFNFTMTLPDGTELTDFHNYIYQFGALDEEQCQA,glycan array binding signal (z-score),Gal(a1-3)Gal(b1-3)GlcNAc,-0.234
same,glycan array binding signal (z-score),[1],-0.134
same,glycan array binding signal (z-score),[2],0.536
same,glycan array binding signal (z-score),[3],0.05
same,glycan array binding signal (z-score),[4],0.288
same,glycan array binding signal (z-score),[5],-0.327
same,glycan array binding signal (z-score),Gal(a1-3)Gal(b1-4)Glc,-0.504
same,glycan array binding signal (z-score),Gal(a1-3)Gal(b1-4)GlcNAc,0.42
same,glycan array binding signal (z-score),[6],-0.266
same,glycan array binding signal (z-score),[7],-0.305
same,glycan array binding signal (z-score),[8],-0.082
same,glycan array binding signal (z-score),[9],0.364
same,glycan array binding signal (z-score),[10],1.04
same,glycan array binding signal (z-score),[11],-0.332
same,glycan array binding signal (z-score),Gal(a1-3)GalNAc,-0.319
same,glycan array binding signal (z-score),[12],1.19
same,glycan array binding signal (z-score),[13],0.024
same,glycan array binding signal (z-score),Gal(a1-4)Gal(b1-4)Glc,-0.127
same,glycan array binding signal (z-score),Gal(a1-4)Gal(b1-4)GlcNAc,-0.164
same,glycan array binding signal (z-score),[14],-0.058
same,glycan array binding signal (z-score),[15],-0.25
same,glycan array binding signal (z-score),Gal(a1-4)GlcNAc,-0.067
same,glycan array binding signal (z-score),Gal(a1-6)Glc,-0.08
same,glycan array binding signal (z-score),Gal(b1-2)Gal,-0.47
same,glycan array binding signal (z-score),Gal(b1-3)Gal,0.345
same,glycan array binding signal (z-score),Gal(b1-3)Gal(b1-4)GlcNAc,-0.114
same,glycan array binding signal (z-score),[16],0.695
same,glycan array binding signal (z-score),Gal(b1-3)GalNAc,0.094
same,glycan array binding signal (z-score),[17],-0.55
same,glycan array binding signal (z-score),[18],-0.423
same,glycan array binding signal (z-score),Gal(b1-3)GalNAc(b1-3)Gal,-0.245
same,glycan array binding signal (z-score),[19],-0.321
same,glycan array binding signal (z-score),[20],3.27
same,glycan array binding signal (z-score),[21],-0.012
same,glycan array binding signal (z-score),Gal(b1-3)GlcNAc,-0.262
same,glycan array binding signal (z-score),[22],-0.388
same,glycan array binding signal (z-score),[23],-0.44
